{
  "source": "PubChem BioAssay AID1508624",
  "about": "(National Center for Advancing Translational Sciences (NCATS), 2021)",
  "note": "Screen size: about 48,000 compounds; about 120 (0.25%) were called active. About 4% were inconclusive and are not listed. The call rests on the fitted dose curve; in most records, active means well fitted activation curve with a large enough effect; inconclusive means small, poorly fitted or top-dose-only effect, or another doubt; inactive means no such curve, though single readings can be large or run the other way. The list shows a part of the results.",
  "data": [
    {"assay": "Primary qHTS for Identification of Small Molecule Activators of Huntingtin-Antisense Promoter Activity; further: nearly all actives have a fitted effect of over 55% in size", "conditions": "HEK293 HTT-AS promoter firefly luciferase reporter (activity 0% = vehicle and -100% = no light), 24 h; series mostly up to 57.5 µM; activity change, positive = activation: at the top concentration", "procedure,_shortened": "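Firefly luciferase readout (Dual-Glo, 10 min RT) after 24 h, 37 °C compound exposure (final up to 57.5 uM) of HEK293 reporter cells cultured 24 h beforehand; PTC124 at 50 uM final as control inhibitor; activity scaled vehicle 0%, zero RLU -100%.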", "values": [
      {"smiles": "CCOc1ccc(NC(=O)C(=O)NCCc2sc(-c3ccc(C)cc3)nc2C)cc1", "activity change, positive = activation": "inactive: 0.203%"},
      {"smiles": "COc1ccc(OC)c(NC(=O)C2CCN(S(=O)(=O)c3c(C)noc3/C=C/c3ccc(C)cc3)CC2)c1", "activity change, positive = activation": "inactive: -9.46%"},
      {"smiles": "CC1CCCCN1CCCNC(=O)c1sc2ncccc2c1-n1cccc1", "note": "(stereo not drawn)", "activity change, positive = activation": "inactive: 10.9%"},
      {"smiles": "Cc1ccc(C(=O)Nc2cc(-c3nc4cc(Cl)ccc4o3)ccc2C)c(C)c1", "activity change, positive = activation": "inactive: 20.7%"},
      {"smiles": "O=S(=O)(NCc1csc(-c2ccccc2)n1)c1ccccc1", "activity change, positive = activation": "inactive: -7.38%"},
      {"smiles": "COc1ccc(Cn2c(CNS(=O)(=O)c3ccc(Cl)s3)nc3cccnc32)cc1", "activity change, positive = activation": "inactive: -22%"},
      {"smiles": "Cc1cccc(Cn2c(CN3CCC(C(=O)NCc4ccccc4Cl)CC3)cc3ccccc32)c1", "activity change, positive = activation": "inactive: -12.7%"},
      {"smiles": "CCCN1C(=O)c2[nH]nc(-c3ccc(OC)cc3)c2C1c1ccccn1", "note": "(stereo not drawn)", "activity change, positive = activation": "inactive: -17.5%"},
      {"smiles": "COC(=O)c1sc(N2C(=O)c3oc4cc(C)c(C)cc4c(=O)c3C2c2ccccc2F)nc1C", "note": "(stereo not drawn)", "activity change, positive = activation": "inactive: -19.5%"},
      {"smiles": "C=CC(=O)Nc1cccc(Oc2nc(Nc3ccc(N4CCN(C)CC4)cc3OC)ncc2Cl)c1", "activity change, positive = activation": "inactive: -32%"},
      {"smiles": "CCOCCCNC(=O)C1CCN(c2nc3ccc(Cl)cc3[nH]2)CC1", "activity change, positive = activation": "inactive: 8.13%"},
      {"smiles": "COc1ccc(CN2CCc3nc(N4CCN(c5ccc(F)cc5)CC4)ncc3C2)c(OC)c1OC", "activity change, positive = activation": "inactive: -57%"},
      {"smiles": "O=C(c1cnn(-c2ccc(F)cc2)c1-n1cccc1)N1CCN(c2cccc(Cl)c2)CC1", "activity change, positive = activation": "inactive: -5.85%"},
      {"smiles": "O=c1c2cccnc2n(Cc2ccc(Cl)cc2)c(=O)n1Cc1ccc(F)cc1", "activity change, positive = activation": "inactive: 0.212%"},
      {"smiles": "CNC(=O)c1cccc(-n2c(C)nc3cccnc32)c1C", "activity change, positive = activation": "inactive: 8.01%"},
      {"smiles": "CCCSc1nnc(NC(=O)Cc2coc3cc(C)ccc23)s1", "activity change, positive = activation": "inactive: -24.7%"},
      {"smiles": "CC(=O)c1ccc(NC(=O)CSc2nc3c(=O)n(C)c(=O)n(C)c3n2C)cc1", "activity change, positive = activation": "inactive: 25.1%"},
      {"smiles": "CC(=O)Nc1ccc(S(=O)(=O)N2CCN(c3ccc(C)c(C)c3)CC2)cc1", "activity change, positive = activation": "inactive: -30%"},
      {"smiles": "Cc1cc(OCC(=O)Nc2ccc(C(=O)OC3CCCCC3)cc2)ccc1Cl", "activity change, positive = activation": "inactive: -6.94%"},
      {"smiles": "O=C(Nc1cn[nH]c1-c1nc2ccc(CN3CCOCC3)cc2[nH]1)NC1CC1", "activity change, positive = activation": "inactive: -34.5%"},
      {"smiles": "COc1ccc(C(=O)NCC(=O)OCc2cc(=O)n3nc(C4CCCCC4)sc3n2)cc1", "activity change, positive = activation": "inactive: 3.91%"},
      {"smiles": "Cc1c(N(C)CS(=O)(=O)O)c(=O)n(-c2ccccc2)n1C", "activity change, positive = activation": "inactive: -6.44%"},
      {"smiles": "Cc1ccccc1-c1nc(CS(=O)(=O)CC(=O)NCCCN2CCN(C)CC2)c(C)o1", "activity change, positive = activation": "inactive: -22.4%"},
      {"smiles": "COc1ccc(NC(=O)CSc2nncn3c2cc2occc23)c(OC)c1", "activity change, positive = activation": "inactive: -13.1%"},
      {"smiles": "COc1ccc(-n2nnc(-c3nc(-c4ccc5c(c4)OCO5)no3)c2C)cc1Cl", "activity change, positive = activation": "inactive: -1.3%"},
      {"smiles": "O=C(Cn1c(=O)n(Cc2ccco2)c(=O)c2ccccc21)Nc1cccc(F)c1", "activity change, positive = activation": "inactive: -21.9%"},
      {"smiles": "COc1ccc(NC(=O)Cn2c(=O)n(Cc3ccco3)c(=O)c3sc4ccccc4c32)cc1OC", "activity change, positive = activation": "inactive: -14.7%"},
      {"smiles": "CCOc1cc(C#N)c(NC(=O)c2ccc(OC)c(S(=O)(=O)N3CCCCC3)c2)cc1OCC", "activity change, positive = activation": "inactive: -24.1%"},
      {"smiles": "CC(=O)c1ccc(NC(=O)c2cnc(N3CCCC3)nc2C)cc1", "activity change, positive = activation": "inactive: -0.981%"},
      {"smiles": "Cc1ccc(-n2c(-c3ccc(Br)cc3)nc3c(cnn3-c3ccccc3)c2=O)cc1", "activity change, positive = activation": "inactive: -14.3%"},
      {"smiles": "CCc1ccccc1NC(=O)Cn1c(=O)n(-c2ccccc2)c(=O)c2oc3ccccc3c21", "activity change, positive = activation": "inactive: -4.45%"},
      {"smiles": "Cc1c2cnn(-c3ccccc3)c(=O)c2c(C)n1CC(=O)Nc1ccccc1Br", "activity change, positive = activation": "inactive: -13%"},
      {"smiles": "COc1ccccc1N1CCN(S(=O)(=O)c2ccc(-c3coc(C)n3)cc2)CC1", "activity change, positive = activation": "inactive: -13.7%"},
      {"smiles": "O=C(C1CCCCC1)N(Cc1cccnc1)c1nc2ccc(Cl)cc2s1", "activity change, positive = activation": "inactive: -2.9%"},
      {"smiles": "O=C(Nc1nnc(S(=O)(=O)N2CCCc3ccccc32)s1)c1ccc(Cl)cc1", "activity change, positive = activation": "inactive: -56.6%"},
      {"smiles": "CCN(C(=O)CSc1nc(-c2ccc(C(C)C)cc2)no1)c1ccccc1", "activity change, positive = activation": "inactive: -21.9%"},
      {"smiles": "COc1ccc2c(c1)CC(C(=O)Nc1ccc(Br)c(C)c1)CO2", "note": "(stereo not drawn)", "activity change, positive = activation": "inactive: -19.2%"},
      {"smiles": "Cc1ccc2c(CNCCc3ccco3)c(C(=O)O)n(Cc3ccc(F)cc3)c2c1", "activity change, positive = activation": "inactive: -21.3%"},
      {"smiles": "CCOc1ccc(CN(CCc2ccc3c(c2)OCO3)Cc2cc(OC)cc(OC)c2)cc1", "activity change, positive = activation": "inactive: -14.5%"},
      {"smiles": "COc1ccc(NC(=O)CCCc2nnc3n(C(C)C)c(=O)c4sccc4n23)cc1Cl", "activity change, positive = activation": "inactive: 1.57%"},
      {"smiles": "Cc1cc(=O)[nH]c2nnc(SCc3cccc(C(F)(F)F)c3)n12", "activity change, positive = activation": "inactive: -13.4%"},
      {"smiles": "CCOc1ccc(NC(=O)Cn2cc(C(=O)C3CC3)c3ccccc32)cc1", "activity change, positive = activation": "inactive: -17.7%"},
      {"smiles": "CCN1CCC(N(Cc2ccc(F)cc2)C(=O)Nc2ccc(C)c(F)c2)CC1", "activity change, positive = activation": "inactive: -7.96%"},
      {"smiles": "CC(C)c1ccc(NC(=O)Cn2nnc(C(=O)NCCc3ccccc3)c2N)cc1", "activity change, positive = activation": "inactive: -15.3%"},
      {"smiles": "COc1cc(Cl)c(NC(=O)CN2C(=O)c3cccnc3Sc3ccccc32)c(OC)c1", "activity change, positive = activation": "inactive: -26.3%"},
      {"smiles": "COc1ccc(NC(=O)C(Cc2ccccc2)NS(=O)(=O)c2ccc3c(c2)oc(=O)n3C)c(OC)c1", "note": "(stereo not drawn)", "activity change, positive = activation": "inactive: -12%"},
      {"smiles": "Cc1nc(N2CCOCC2)c2c(C(=O)N3CCN(c4cccc(C(F)(F)F)c4)CC3)c(C)oc2n1", "activity change, positive = activation": "inactive: -16.4%"},
      {"smiles": "Cc1nc2ccc(S(=O)(=O)NCC(=O)NCc3ccc(Cl)cc3)cc2s1", "activity change, positive = activation": "inactive: -17.7%"}
    ]}
  ]
}
